The text below walks through data of the supplement of paper PMC8007513.

Counter-ions that a name gives are not always drawn. ± gives the standard error. About 130 (10%) of roughly 1,300 compounds showed an effect of 50% or more. Only a part is listed here, and it is no random draw.

The subject of the assay is Trichoderma virens ATCC 9645. Kind of assay: growth yield (OD600) with compound + IPBC relative to untreated control; higher = less growth inhibition. The note with it: compound concentration: 100 uM, IPBC concentration: 200 ng/ml. Summed up:
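Trichoderma virens ATCC 9645 spores at 15,000 spores ml^−1 in potato dextrose broth were exposed in 96-well plates to library compounds at 100 μM final, with or without a biocide at 200 ng ml^−1. After growth at 30 °C, OD600 was read at 40 h and 72 h. Values are growth relative to the control without either agent, averaged over duplicate screens.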

As for `CN1CCN(C2=Nc3cc(Cl)ccc3Nc3ccccc32)CC1` [Clozapine] + CCCCNC(=O)OCC#CI [3-iodo-2-propynyl butylcarbamate (IPBC)], the growth yield worked out at 65.6 ± 2.7% (40 h) and 93.8 ± 2.7% (72 h).
The corresponding values for `COc1ccc(OC)c(C(O)C(C)N)c1` (stereo not given) [Methoxamine hydrochloride] + CCCCNC(=O)OCC#CI [3-iodo-2-propynyl butylcarbamate (IPBC)] are 87.4 ± 7.3% and 92.4 ± 5.3%.
On the same counts, the results for `CCC(NC(C)C)C(O)c1ccc(O)c(O)c1` (stereo not given) [Isoetharine mesylate salt] + CCCCNC(=O)OCC#CI [3-iodo-2-propynyl butylcarbamate (IPBC)] are 114 ± 4.8% and 108.4 ± 0.42%.
On the same counts, the results for `CN1CCc2cccc3c2[C@H]1Cc1ccc(O)c(O)c1-3` [R(-) Apomorphine hydrochloride hemihydrate] + CCCCNC(=O)OCC#CI [3-iodo-2-propynyl butylcarbamate (IPBC)] are 108% and 100.9 ± 0.42%.
For the molecule `CO[C@@]1(NC(=O)CSCC#N)C(=O)N2C(C(=O)O)=C(CSc3nnnn3C)CS[C@@H]21` [Cefmetazole sodium salt] + CCCCNC(=O)OCC#CI [3-iodo-2-propynyl butylcarbamate (IPBC)], the growth yield reads like this: (40 h) 87.2 ± 4.9%; (72 h) 86.3 ± 3.9%.
Consider `C[C@@H]1[C@H](O)[C@@H](C)/C=C/C=C/C=C/C=C/C=C/C=C/C=C/[C@H](O[C@@H]2O[C@H](C)[C@@H](O)[C@H](N)[C@@H]2O)C[C@@H]2O[C@](O)(C[C@@H](O)C[C@@H](O)[C@H](O)CC[C@@H](O)C[C@@H](O)CC(=O)O[C@H]1C)C[C@H](O)[C@H]2C(=O)O` [Amphotericin B] + CCCCNC(=O)OCC#CI [3-iodo-2-propynyl butylcarbamate (IPBC)], for which the growth yield is, setting by setting: (40 h) 37.3 ± 4.6%; (72 h) 92.61 ± 0.73%.
Take `CCOC(=O)C(C)(C)Oc1ccc(Cl)cc1` [Clofibrate] + CCCCNC(=O)OCC#CI [3-iodo-2-propynyl butylcarbamate (IPBC)]: the growth yield runs as follows: (40 h) 88.5 ± 4.6%; (72 h) 91 ± 1.1%.
On the same counts, the results for `CC(=O)N(O)CCCCCNC(=O)CCC(=O)N(O)CCCCCNC(=O)CCC(=O)N(O)CCCCCN` [Deferoxamine mesylate] + CCCCNC(=O)OCC#CI [3-iodo-2-propynyl butylcarbamate (IPBC)] are 98.16 ± 0.32% and 105 ± 2.1%.
On the same counts, the results for `CC(C)/N=c1\cc2n(-c3ccc(Cl)cc3)c3ccccc3nc-2cc1Nc1ccc(Cl)cc1` [Clofazimine] + CCCCNC(=O)OCC#CI [3-iodo-2-propynyl butylcarbamate (IPBC)] are 83.4 ± 19% and 117 ± 11%.
The corresponding values for `O=C1Cc2cc(CCN3CCN(c4nsc5ccccc45)CC3)c(Cl)cc2N1` [Ziprasidone  Hydrochloride] + CCCCNC(=O)OCC#CI [3-iodo-2-propynyl butylcarbamate (IPBC)] are 106.3 ± 0.48% and 108 ± 1.9%.
As for `CCN[C@H]1C[C@H](C)S(=O)(=O)c2sc(S(N)(=O)=O)cc21` [Dorzolamide hydrochloride] + CCCCNC(=O)OCC#CI [3-iodo-2-propynyl butylcarbamate (IPBC)], the growth yield runs as follows: (40 h) 100 ± 4.5%; (72 h) 94.6 ± 0.63%.
On the same counts, the results for `O=c1cc(-c2ccc(O)c(O)c2)oc2cc(O)cc(O)c12` [Luteolin] + CCCCNC(=O)OCC#CI [3-iodo-2-propynyl butylcarbamate (IPBC)] are 80.7% and 103 ± 17%.
On the same counts, the results for `CCC(=O)O[C@H]1CC[C@H]2[C@@H]3CCC4=CC(=O)CC[C@]4(C)[C@H]3CC[C@]12C` [Testosterone propionate] + CCCCNC(=O)OCC#CI [3-iodo-2-propynyl butylcarbamate (IPBC)] are 90.06 ± 0.16% and 99.6%.
`CC(C)(C(=O)c1cccnc1)c1cccnc1` [Metyrapone] + CCCCNC(=O)OCC#CI [3-iodo-2-propynyl butylcarbamate (IPBC)]: the growth yield (40 h) was 87.5 ± 1.4% and the growth yield (72 h) is 87.68 ± 0.84%.
With `Nc1cc(-c2ccncc2)c[nH]c1=O` [Amrinone] + CCCCNC(=O)OCC#CI [3-iodo-2-propynyl butylcarbamate (IPBC)], the growth yield (72 h) came out at 41.3%.
In the case of `CC(N)C12CC3CC(CC(C3)C1)C2` (stereo not given) [Rimantadine Hydrochloride] + CCCCNC(=O)OCC#CI [3-iodo-2-propynyl butylcarbamate (IPBC)], the growth yield is 82.76 ± 0.16% (40 h) and 89.04 ± 0.1% (72 h).
The corresponding values for `CCC(=O)OCC(=O)[C@@]1(OC(=O)CC)[C@H](C)C[C@H]2[C@H]3[C@H]([C@@H](O)C[C@@]21C)[C@@]1(C)C=CC(=O)C=C1C[C@H]3Cl` [Alclometasone dipropionate] + CCCCNC(=O)OCC#CI [3-iodo-2-propynyl butylcarbamate (IPBC)] are 100 ± 8.9% and 100 ± 8.6%.
On the same counts, the results for `CCCc1nc(C(C)(C)O)c(C(=O)O)n1Cc1ccc(-c2ccccc2-c2nnn[nH]2)cc1` [Olmesartan] + CCCCNC(=O)OCC#CI [3-iodo-2-propynyl butylcarbamate (IPBC)] are 107 ± 1.3% and 104 ± 1.4%.
The corresponding values for `N=C(N)N/N=C/c1c(Cl)cccc1Cl` [Guanabenz acetate] + CCCCNC(=O)OCC#CI [3-iodo-2-propynyl butylcarbamate (IPBC)] are 81.5 ± 6.5% and 90.2 ± 5.5%.
Take `OC(CCN1CCCCC1)(c1ccccc1)C1CCCCC1` (stereo not given) [Trihexyphenidyl-D,L Hydrochloride] + CCCCNC(=O)OCC#CI [3-iodo-2-propynyl butylcarbamate (IPBC)]: the growth yield is, setting by setting: (40 h) 101 ± 16%; (72 h) 102 ± 8.6%.
On to `Brc1c(NC2=NCCN2)ccc2nccnc12` [Brimonidine L-Tartrate] + CCCCNC(=O)OCC#CI [3-iodo-2-propynyl butylcarbamate (IPBC)], for which the growth yield (40 h) stood at 98 ± 4.3% and the growth yield (72 h) came out at 94.4 ± 1.1%.
The corresponding values for `CN(C)CCOC(=O)COc1ccc(Cl)cc1` [Meclofenoxate hydrochloride] + CCCCNC(=O)OCC#CI [3-iodo-2-propynyl butylcarbamate (IPBC)] are 93.2 ± 3.3% and 96.7 ± 2.1%.
On the same counts, the results for `CC(Oc1ccccc1)C(=O)N[C@@H]1C(=O)N2[C@@H]1SC(C)(C)[C@@H]2C(=O)O` (stereo not given in full) [Phenethicillin potassium salt] + CCCCNC(=O)OCC#CI [3-iodo-2-propynyl butylcarbamate (IPBC)] are 105 ± 11% and 105 ± 6.3%.
The corresponding values for `COc1ccc(C(=O)NCc2ccc(OCCN(C)C)cc2)cc1OC` [Itopride] + CCCCNC(=O)OCC#CI [3-iodo-2-propynyl butylcarbamate (IPBC)] are 107 ± 1.1% and 102%.
Take `Cn1c([N+](=O)[O-])cnc1COC(N)=O` [Ronidazole] + CCCCNC(=O)OCC#CI [3-iodo-2-propynyl butylcarbamate (IPBC)]: the growth yield by setting is: (40 h) 99 ± 6.2%; (72 h) 95.5 ± 5.3%.
Turning to `C[C@]12CC[C@@H]3c4ccc(O)cc4CC[C@H]3[C@@H]1C[C@@H](O)[C@@H]2O` [Estriol] + CCCCNC(=O)OCC#CI [3-iodo-2-propynyl butylcarbamate (IPBC)], the growth yield by setting is: (40 h) 83.07 ± 0.79%; (72 h) 87.3 ± 1.1%.
On the same counts, the results for `CCc1cccc2c3c([nH]c12)C(CC)(CC(=O)O)OCC3` (stereo not given) [Etodolac] + CCCCNC(=O)OCC#CI [3-iodo-2-propynyl butylcarbamate (IPBC)] are 98.8 ± 0.95% and 99.32 ± 0.94%.
On the same counts, the results for `CC[N+](CC)(CC)CCC(O)(c1ccccc1)C1CCCCC1` (stereo not given) [Tridihexethyl chloride] + CCCCNC(=O)OCC#CI [3-iodo-2-propynyl butylcarbamate (IPBC)] are 90.1 ± 9.1% and 92.6 ± 6.6%.
For the molecule `CC(Oc1c(Cl)cccc1Cl)C1=NCCN1` (stereo not given) [Lofexidine] + CCCCNC(=O)OCC#CI [3-iodo-2-propynyl butylcarbamate (IPBC)], the growth yield turned out to be 88 ± 6% (40 h) and 92.4 ± 3.7% (72 h).
Regarding `CC1=C(CC(=O)O)c2cc(F)ccc2/C1=C\c1ccc([S+](C)[O-])cc1` (stereo not given) [Sulindac] + CCCCNC(=O)OCC#CI [3-iodo-2-propynyl butylcarbamate (IPBC)], the growth yield was found to be 89.7 ± 4.3% (40 h) and 91.7 ± 3.6% (72 h).
On the same counts, the results for `CCOC(=O)[C@H](CCc1ccccc1)N[C@@H](C)C(=O)N1CCC[C@H]1C(=O)O` [Enalapril maleate] + CCCCNC(=O)OCC#CI [3-iodo-2-propynyl butylcarbamate (IPBC)] are 87 ± 9.2% and 93.2 ± 3.5%.
On the same counts, the results for `CO/N=C(\C(=O)N[C@@H]1C(=O)N2C(C(=O)O)=C(C[N+]3(C)CCCC3)CS[C@H]12)c1csc(N)n1` [Cefepime hydrochloride] + CCCCNC(=O)OCC#CI [3-iodo-2-propynyl butylcarbamate (IPBC)] are 92 ± 5.2% and 106 ± 7.8%.
On the same counts, the results for `C[C@]12COC(=O)C[C@@H]1CC[C@@H]1[C@@H]2CC[C@@]2(C)[C@H]1CC[C@]2(C)O` [Oxandrolone] + CCCCNC(=O)OCC#CI [3-iodo-2-propynyl butylcarbamate (IPBC)] are 102.8 ± 0.79% and 101.8 ± 0.94%.
In the case of `COc1ccc2[nH]c([S+]([O-])Cc3ncc(C)c(OC)c3C)nc2c1` (stereo not given) [Omeprazole] + CCCCNC(=O)OCC#CI [3-iodo-2-propynyl butylcarbamate (IPBC)], the growth yield was determined as 86.9 ± 16% (40 h) and 90.6 ± 9.7% (72 h).
`Cc1cc(-n2c(=O)[nH]c(=O)n(C)c2=O)ccc1Oc1ccc(SC(F)(F)F)cc1` [Toltrazuril] + CCCCNC(=O)OCC#CI [3-iodo-2-propynyl butylcarbamate (IPBC)]: the growth yield by setting is: (40 h) 87.8 ± 2.4%; (72 h) 94.5 ± 3%.
On the same counts, the results for `Cc1ccccc1N1C(=O)c2cc(S(N)(=O)=O)c(Cl)cc2NC1C` (stereo not given) [Metolazone] + CCCCNC(=O)OCC#CI [3-iodo-2-propynyl butylcarbamate (IPBC)] are 99.9 ± 7.8% and 101 ± 4.7%.
Take `CCOC(=O)C1=C[C@]2(CC)CCCN3CCc4c(n1c1ccccc41)[C@@H]32` [Vinpocetine] + CCCCNC(=O)OCC#CI [3-iodo-2-propynyl butylcarbamate (IPBC)]: the growth yield amounted to 89.3 ± 7.9% (40 h) and 93.2 ± 6.6% (72 h).
On the same counts, the results for `O=C(O)CCC(=O)Nc1ccc(S(=O)(=O)Nc2nccs2)cc1` [Succinylsulfathiazole] + CCCCNC(=O)OCC#CI [3-iodo-2-propynyl butylcarbamate (IPBC)] are 95 ± 8.9% and 94.8 ± 5.7%.
